# ± gives the standard deviation of the averaged measurements. Whole data set: some 33,000 sequences, median “E-score (dimensionless, -0.5 to 0.5)” near -0.049, cut for the highest 2% near 0.37. The list shows a part of the results.
# Test system: T1, PmTbr T-box DNA-binding domain (GST fusion)
# T1 sequence: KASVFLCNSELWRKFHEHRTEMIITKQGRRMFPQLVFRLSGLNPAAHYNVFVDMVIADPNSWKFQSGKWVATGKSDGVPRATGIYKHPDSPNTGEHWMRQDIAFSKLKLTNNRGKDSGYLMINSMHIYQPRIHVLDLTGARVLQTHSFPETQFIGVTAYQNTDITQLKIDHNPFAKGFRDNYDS
# Assay: PBM E-score of 8-mer (E-score (dimensionless, -0.5 to 0.5)); Tbr is Tbrain of the sea star Patiria miniata (Pm) or the sea urchin Strongylocentrotus purpuratus (Sp); higher = stronger binding preference; most listed sequences are background and not binding sites
# Conditions: the construct has about 5 more residues each side
# Method: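 Universal protein-binding microarray (Agilent AMADID 016060, 60-bp probes with a 35-bp variable region) incubated with 200 nM GST-fused Patiria miniata Tbr T-box DNA-binding domain (residues 272-466) in PBS pH 7.5. Scored for every ungapped 8-mer (given with its reverse complement) by the Universal PBM Analysis Suite as E-score (modified Wilcoxon-Mann-Whitney enrichment, range -0.5 to 0.5; >0.45 counts as bound) and Z-score of median probe intensity. Two replicate arrays (datasets 1 and 2).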
# 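Also: 200 nM protein in PBS on universal arrays averaged over duplicate arrays.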
row,Sequence,PBM E-score of 8-mer
1,ACCAGCTG,-0.0194 ± 0.046
2,TACGTACA,-0.0771 ± 0.031
3,AAGTCAGG,-0.238 ± 0.099
4,GGCCCCAA,0.135 ± 0.025
5,CGCTAGGC,0.0909 ± 0.074
6,CATATCAA,-0.0653 ± 0.053
7,AAGATAGA,-0.295 ± 0.018
8,CAGGTATA,-0.0703 ± 0.081
9,AGCCGAAT,-0.306 ± 0.019
10,AACGCTGG,0.0657 ± 0.046
11,ACGTATTC,-0.0822 ± 0.024
12,CCTTATCG,0.129 ± 0.06
13,GCTTCGCC,-0.155 ± 0.1
14,AGGTACGC,-0.135 ± 0.045
15,AAAGTCCG,-0.00454 ± 0.029
16,AGACTGAA,-0.126 ± 0.028
17,ACCTCCAT,0.14 ± 0.014
18,CCCGTTCG,0.00454 ± 0.0041
19,AACTTGGT,0.00681 ± 0.077
20,ATTCAGAG,-0.13 ± 0.0013
21,CACGAGAC,-0.0797 ± 0.018
22,CCGAACTA,-0.2 ± 0.11
23,GTCGGTCA,-0.033 ± 0.025
24,AAACGGTT,-0.0183 ± 0.0019
25,CGGGTCAC,0.113 ± 0.024

row,Sequence,PBM E-score of 8-mer
1,ACGCCTAG,0.292 ± 0.011
2,AGAATCGA,-0.0268 ± 0.011
3,CGTATCAG,0.0697 ± 0.037
4,CTTTTAAC,0.0881 ± 0.12
5,GTGCGTCA,0.11 ± 0.023
6,CAACTAGC,0.064 ± 0.0028
7,GTGCCGTA,-0.0314 ± 0.012
8,GGTACGCA,-0.154 ± 0.074
9,CGGACAGA,-0.178 ± 0.065
10,CCCGGACA,0.0682 ± 0.084
11,ACACGCGA,0.2396 ± 0.0015
12,ATCCAGCC,-0.0409 ± 0.03
13,CTTATGTA,-0.156 ± 0.026
14,TAACGTAA,-0.228 ± 0.093
15,TAGATTCA,-0.0302 ± 0.012
16,CCCTGCCG,0.0201 ± 0.13
17,GAGGAGGA,-0.0974 ± 0.01
18,AATTATTG,-0.227 ± 0.061
19,ACCGGTAA,-0.0335 ± 0.019
20,GTGTCGTA,0.327 ± 0.018
21,ACCGTTAG,0.1015 ± 0.00013
22,AGCCAATG,-0.214 ± 0.11
23,AATATGAC,0.0569 ± 0.057
24,CCTATTAA,-0.157 ± 0.027
25,CAGATAAC,0.115 ± 0.039

row,Sequence,PBM E-score of 8-mer
1,CTCTCAGA,-0.132 ± 0.047
2,ACTCGTGG,-0.116 ± 0.019
3,CCCGCATA,-0.191 ± 0.079
4,GCCGTACA,-0.108 ± 0.013
5,AGAGAGGA,-0.145 ± 0.033
6,ATTTCTGC,-0.142 ± 0.0022
7,CTTAAGCA,-0.0559 ± 0.013
8,CCACGGGG,0.125 ± 0.055
9,CCGCCAAC,0.155 ± 0.014
10,GTGAGAAA,0.458 ± 0.012
11,AAAGAGTT,0.0877 ± 0.014
12,AAACAACC,-0.0664 ± 0.015
13,GTTAGAAA,0.109 ± 0.022
14,CCCTTTCG,-0.0314 ± 0.0052
15,AACTTCAC,0.0623 ± 0.061
16,AGGCTAGC,-0.0407 ± 0.028
17,AGTTCTAG,-0.0278 ± 0.041
18,ATGTAACG,-0.0238 ± 0.026
19,CAGCCAAG,-0.0783 ± 0.084
20,AACTGGGG,-0.216 ± 0.052
21,ATACTACC,-0.127 ± 0.11
22,AAAGACAC,0.159 ± 0.036
23,CGTCAGCC,-0.117 ± 0.095
24,CGAACAAC,0.16 ± 0.031
25,ATAATACA,-0.0598 ± 0.013

row,Sequence,PBM E-score of 8-mer
1,ATAGTCCG,-0.131 ± 0.0027
2,GATGGGCC,-0.16 ± 0.047
3,GATGAACC,-0.238 ± 0.028
4,TAAGAGAA,-0.235 ± 0.051
5,TGAACACA,0.118 ± 0.027
6,GATGGCTA,-0.169 ± 0.032
7,AGTCATAG,0.0344 ± 0.022
8,ATAGGTAC,-0.105 ± 0.041
9,CTTTCGAA,0.0767 ± 0.037
10,AGACCATG,-0.132 ± 0.0097
11,ACCTAGGG,0.169 ± 0.0037
12,CTCTACTC,-0.134 ± 0.051
13,AAACTAGA,-0.161 ± 0.057
14,GTTAGAGA,0.0437 ± 0.071
15,AATTCCCA,-0.13 ± 0.041
16,AGAACTTA,-0.0909 ± 0.074
17,CTGCTAAA,0.21 ± 0.071
18,CGTGGCGC,0.145 ± 0.023
19,GCGGGACA,-0.105 ± 0.054
20,AGTTACAT,0.00137 ± 0.016
21,ATATCACA,0.368 ± 0.0087
22,AAACGTAA,-0.0985 ± 0.035
23,AGATGGTA,0.00457 ± 0.0074
24,CACGGGTA,0.00409 ± 0.011
25,CAAGGGAC,-0.0692 ± 0.03

row,Sequence,PBM E-score of 8-mer
1,AGCGTCTG,-0.0652 ± 0.022
2,TATTCAGA,-0.339 ± 0.0077
3,ATCGTTCC,-0.105 ± 0.018
4,ACCCTTAG,0.013 ± 0.091
5,CAGTAAGG,-0.0221 ± 0.052
6,CTTAGCGC,0.284 ± 0.0041
7,AGAACGAC,-0.0459 ± 0.035
8,AAACGAAT,0.0595 ± 0.0096
9,GGACCGCC,-0.18 ± 0.035
10,ACCGTGCT,0.0549 ± 0.059
11,CAGGTATG,0.0462 ± 0.043
12,AGTATTGG,-0.0858 ± 0.022
13,CGCTCGAC,0.0137 ± 0.026
14,TCGGATCA,-0.0895 ± 0.043
15,CTCCTGAC,-0.00639 ± 0.074
16,TACCAATA,-0.0615 ± 0.078
17,AAAAAGCA,0.158 ± 0.084
18,GAGTTCAC,0.263 ± 0.035
19,AAAGGATG,-0.167 ± 0.054
20,CCACATAG,0.00626 ± 0.033
21,AAAGTCAC,0.0946 ± 0.023
22,CCCCCTAA,-0.241 ± 0.019
23,TCACTACA,0.11 ± 0.0097
24,AGTCGGGC,-0.0257 ± 0.094
25,ACTGCTCC,-0.0798 ± 0.014

row,Sequence,PBM E-score of 8-mer
1,GGAGCTGA,-0.0874 ± 0.0083
2,AGGTTCAG,-0.0171 ± 0.05
3,CTTCCTCC,-0.2165 ± 0.00028
4,CTTAAAAA,0.037 ± 0.049
5,AACGCGTG,0.306 ± 0.01
6,CTAAGCTA,-0.249 ± 0.081
7,AAGTCACC,-0.0203 ± 0.083
8,AGAATTAT,-0.111 ± 0.053
9,ACGTCGGA,0.0795 ± 0.014
10,ACAGCTGA,0.0767 ± 0.025
11,CTGTGCCA,0.0393 ± 0.039
12,CGCTCCCG,-0.0981 ± 0.017
13,CATGGACG,-0.119 ± 0.07
14,CGCGCCGC,0.246 ± 0.001
15,ACCAACCC,-0.164 ± 0.011
16,CTGAACAA,-0.0764 ± 0.044
17,CTTAGATC,-0.0818 ± 0.021
18,CGAAATCG,0.231 ± 0.046
19,AAGGGTAA,-0.155 ± 0.0084
20,AAATCAGG,-0.229 ± 0.025
21,CCAGAGGA,-0.0404 ± 0.05
22,CCGAACGC,0.00566 ± 0.028
23,ACACGAGG,0.0826 ± 0.026
24,GATGGTCA,-0.26 ± 0.0048
25,TGCAAGAA,-0.0721 ± 0.033

row,Sequence,PBM E-score of 8-mer
1,CCTCCGAG,-0.0523 ± 0.035
2,GAATGGAA,-0.173 ± 0.041
3,GGATCGGA,-0.156 ± 0.065
4,CGTGTAGA,0.0938 ± 0.0091
5,CACGTCAC,0.286 ± 0.033
6,GGGATCCA,-0.0421 ± 0.0063
7,CGTACGGC,-0.206 ± 0.049
8,ATATAACG,0.046 ± 0.035
9,CAATATAA,0.0981 ± 0.026
10,TGCGAGCA,0.176 ± 0.073
11,CCCGAGAA,-0.0833 ± 0.01
12,ATACCCAG,-0.12 ± 0.057
13,ATTGAACA,-0.00966 ± 0.0099
14,AGGTGACG,0.4629 ± 0.0014
15,AAGAGTCG,-0.1406 ± 0.00026
16,ACGGCTAG,0.0288 ± 0.029
17,GGTGACTA,0.19 ± 0.03
18,CCTGATGC,-0.0675 ± 0.048
19,AACCCATT,-0.164 ± 0.021
20,ACTGTATG,0.0567 ± 0.041
21,CGGCCAGA,-0.215 ± 0.011
22,GGGTCCCA,-0.0792 ± 0.1

# Reference: the supplement of paper PMC4166925
